Results reported in the supplement of paper PMC11417369.
Some of the results follow.

Test system: PfAP2-HC AP2 domain (GST-tagged)
Assay: gcPBM binding intensity (ln(normalized median fluorescence intensity)); higher = stronger DNA binding
Summary of the method: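 GST-tagged P. falciparum DNA-binding domains, expressed in E. coli (about 25 μg on average), were applied for 1 h to an Agilent 4 × 180k array of primer-extended double-stranded 36-bp intergenic genomic probes plus negative controls. The binding buffer was 1× PBS with 1% milk, 0.2 mg/ml BSA, 0.5% salmon testes DNA and 0.03% Triton X-100. Bound protein was detected with Alexa488 anti-GST antibody and scanned at 488 nm. Binding intensity is the highest Masliner-normalised natural-log median intensity across replicate spots of either probe orientation.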

Sequence | gcPBM binding intensity (ln)
AAAGAAATAAGGTGCACACATATACATATATATATA [CACACA_site429] | 10.1
TTTAAAAAAAATTCATATTATATATATATATATTAT [CACACA_negctrl_site1733] | 9.5
AAGAAATAATTATTATGTACTTAAAAAAATTAAAAT [XGTACX_site7423] | 9.58
AAGAAATAAATACATACACACATATATAAATAAATA [CACACA_site7559] | 10.1
ATATATATATAATTATATAAAATATATCATATGTTA [XGTACX_negctrl_site47] | 9.56
TTTATGTATTTAATATGTACATATAGTTGTTAATAA [XGTACX_site1938] | 9.6
GCTATATATTAATGTTGTACTTTATGTTCATATTGT [XGTACX_site3619] | 9.88
AAAATGTACGCATATACACACACATAAATAGATACG [CACACA_site9124] | 10.6
TAAATATAGAAACACACACACATTAATACATATATT [CACACA_site3489] | 10.4
AAATTTGAAATGCATGAACACACACCGCTATAAATG [CACACA_site8230] | 10.3
TAATTTTTTATATATTGTACAAATAATATATGATGT [XGTACX_site268] | 9.49
ACATCATAAAATTTATGTACACATTTTTAATTATAC [XGTACX_site7759] | 9.63
ATCATTTTTATGTACACACACATATACGTTGAATAT [CACACA_site1865] | 10.1
AAGGTATACACTGCTTTATCAAGTTTAACTCTTTTT [XGTACX_negctrl_site118] | 9.65
TATAAAATTTACGTGTGTACATATTTAATAATTTTT [XGTACX_site5001] | 9.69
AAGATATGAGGGAATACACACATATTTATATTTATA [CACACA_site6846] | 9.9
TAATTTATAACACGCGCACACATATATATATAGTAA [CACACA_site121] | 9.86
AATAGTGTCATAAAAACTATTATCATATAATGTGAA [CACACA_negctrl_site1578] | 9.56
TTTCTTTTTAACTCTTACATAATAGGTGGTAGAAGG [TGCATGCA_negctrl_site176] | 9.35
TTGTTGTGTATTATCGTGCACATAATATAAAAGATT | 9.59
TTATTTATTTATTATAGTTCACTTGAAAATACAAGA [CACACA_negctrl_site1480] | 9.38
CATATATACAGTAACACACACAAAAAAATATGAATA [CACACA_site3996] | 10.5

Sequence | gcPBM binding intensity (ln)
ATAAAAAAAAAAAATACACACATATATATATATATA [CACACA_site1709] | 9.95
AAAAAATATAAAAAAACACACAAAAAAAAAAAAAAA [CACACA_site1382] | 9.71
TTCTTAAAAAATCAAACACACATATATAAATACATA [CACACA_site5301] | 9.83
AAAGACGTTTATAAATGTACATACACTTTAAAAGTT [XGTACX_site8753] | 9.6
CCCCATTTATCTTAAGCATGCCATGGTTTTAGATAT [TGCATGCA_site24] | 9.76
AATTATTTTAGAAACACACAAATTAGAAAAAACATA [CACACA_site7673] | 9.79
GTATATATCTCAGAGCATAATAGTATAATTCGGTCA [CACACA_negctrl_site876] | 9.52
AATAACATTATTTTATGTACACATGAAAAATAAAAT [XGTACX_site4657] | 9.68
TGATATTTCATCATAGTGCAATATGGCATATAAATA [GTGCAC_site9433] | 9.51
AATATCAAAATAACATGTACATGTTATATTTTATTT [XGTACX_site5891] | 9.73
TGTAATAAACTACTTTTTTTTTTTTTTTTTTTTTTT [CACACA_negctrl_site1021] | 9.43
AATATATATATAAATAGTACATATAAAGAGAATTTT [XGTACX_site3168] | 9.84
CAGAAATATTCTTATACACACTGTTCTTATATTCCT [CACACA_site4318] | 9.82
ATTAAAACAAAATGTACACACATATAATTTAATGAC [CACACA_site878] | 10.2
TTTATCTTTTTTTGTTGTACAGATGTTTATATTTTA [XGTACX_site4065] | 9.82
TATTTTTTTAAAATAGGTACACAATCAAACATTTAT [XGTACX_site8785] | 9.42
ACCTCATAATATTTAACACACAAAATTATCTGTATG [CACACA_site5015] | 9.9
TTATAGACATATATAGGTACACATATTTTCAATCCC [XGTACX_site8230] | 9.63
ATTTATTAATCATATACACACATATATTTGTATTTA [CACACA_site1336] | 9.84
TTTATATAATATTCTACACACCAACAACAAACATAT [CACACA_site4478] | 10.2
ATATATATATATAATACACACATAAATGAATATATA [CACACA_site316] | 9.93
GCATTGATCAAACATACACACATGGTTAATAAAAAT [CACACA_site2085] | 9.83

Sequence | gcPBM binding intensity (ln)
GTGATTTCTATGAATTGTACTTAAATATAGTTATAT [XGTACX_site231] | 9.67
CGTCCAAAATATCCTTCACACACGAACAGTTTCATT [CACACA_site2729] | 10.1
TTTAAATAAAAATGGAGTACTCTAAAAAAAAAAAAA [XGTACX_site1233] | 9.37
CTATAATATTATAACAGTACATAATATTATATATAT [XGTACX_site1414] | 9.44
ATATGAAAAACTTCATGTACTTATTATAAAATATAA [XGTACX_site2725] | 9.49
TGAAATGAAAGAACAGCACACATATATATTATATAT [CACACA_site8613] | 9.92
TATATTTTTTAAAAAAGTACAAAGTAATTATTGATT [XGTACX_site2420] | 9.56
GTAGTACATTCTAGAATACACACCTATATATATATA [CACACA_site522] | 9.75
ATTCTAATTTTATGAAACGATTATTTTGAATTCATT [XGTACX_negctrl_site578] | 9.6
ATTTTTAATTTTTTCACACATATATTTAAAATAAAA [CACACA_site4799] | 9.38
ATAAAAAAAAATATATGTACATATATAAATTGATAT [XGTACX_site7409] | 9.87
CTTTTTTTTTTGTATTGTACTTTATTTTTACATCGT [XGTACX_site2918] | 9.74
ATGTGCACATGTAGAAGTACTTTTTCTTAAAATACT [XGTACX_site8341] | 10
TATGTTTTATATAAGATGCACTTTTGTTATGCTTCA | 9.61
ATTTATGTTATTGTATGTACACAATATAATGTTATT [XGTACX_site5657] | 9.84
ATTCTACACGCACATACACACATATAAATATAAATA [CACACA_site7582] | 9.94
AAAAAAAAATATATATATATATATATATAATAAAAA [CACACA_negctrl_site639] | 9.81
AAAAAAAAAAAATGTGCACACGCGTACAGACAAAAA [CACACA_site2005] | 10.3
TAAAAAGTACATTATTCATGGCCTATTACATTTTTT [GTGCAC_negctrl_site282] | 9.7
ATAATATATATGAAATGTACATAAATTTAATGCGAC [XGTACX_site5394] | 10.2
ACACAAAAATAGTTTTTTATATTGTTAACCTTATAT [XGTACX_negctrl_site123] | 9.71
ATATTTTACATATTTGCACACATATATTTAAATACA [CACACA_site4628] | 10

Sequence | gcPBM binding intensity (ln)
TAAATACAAGTAAAAAGTACAGAAAAATTATATATA [XGTACX_site1758] | 9.86
TTTATTTTGTTTTCTTGTACATAAATAATTACATAT [XGTACX_site4227] | 9.86
TTTATTTGGACATATACACACTTAAATATGTTTATT [CACACA_site6021] | 9.74
AAGAGAAATGGGCACACACACACATATTATAGATAT [CACACA_site6828] | 10.5
TATAAAAAATTCAATACACACCATATATAAATATAT [CACACA_site6060] | 9.92
TATAATAATTCATAATGTACTTTTATCAAAAAAGTA [XGTACX_site6868] | 9.39
TGATTCACTATAGTAGTGCATATTATATATATATAT [GTGCAC_site9975] | 9.77
CAAATACACGGACACACACACACAAAAAAAAAAAAA [CACACA_site6385] | 11
AAATTATTGTAAAATAGTACAGTGAAACATAAAGTT [XGTACX_site589] | 9.82
AATATTTATATTTACACACACATAATACATATATGT [CACACA_site33] | 10.2
TTTTTATTCAACAAAAATATCAAACATAATTATAAA [CACACA_negctrl_site616] | 9.33
ATTTTTATGTCTTTCTATAAATCGAAAATATACATA [CACACA_negctrl_site477] | 9.47
TTCCTTTAACCCTGCACACATACATACATTTATATG [CACACA_site3953] | 10
ATATACAACTAAAGAACACACATCATTGTTCATTGG [CACACA_site3681] | 9.81
AAAAAACGCACTCGTACACACATATTTTCTTTCTAA [CACACA_site3089] | 9.77
TTAATTACACAAAAAAGTACTTGATATTGTTTATTA [XGTACX_site3449] | 9.56
ATATAATCAACTGCAAAGGTTTAAAAGGAAAAAATA [CACACA_negctrl_site989] | 9.68
AATATTTACCAGAAAATAAAAATATGTATATATATA [CACACA_negctrl_site351] | 9.59
CGATATTCTAAGGATAGTACATAATAAAATAGAGTA [XGTACX_site4224] | 9.63
ATTTATATTTTTTAATGTACATTTATATGTATACAA [XGTACX_site4555] | 9.77
TAAAATAGAAATATATGTACATATATATATGTATAT [XGTACX_site4134] | 9.76
ATGTATATATTTACGTGTACATATTCATGTGATATC [XGTACX_site5871] | 9.75
